# Hit rate of the full screen: of about 330,000 compounds, about 4,200 (1.3%) were called active. The inconclusive results got no clear call from the source; some entries with a clear call stand among them for comparison. Calls follow the shape of the dose curve; as a rule, active = well fitted activation curve with a large enough effect; inconclusive = small, poorly fitted or top-dose-only effect; inactive = no such curve, though single readings can be large or run the other way. Potencies of inconclusive entries are doubtful fits and often do not repeat.
# Experiment: qHTS screen for small molecules that induce genotoxicity in human embryonic kidney (HEK293T) cells expressing luciferase-tagged ELG1; also: nearly all actives have a fitted effect of over 60% in size
# Details: HEK293T ELG1-luciferase reporter, luminescence, 16 h; series mostly up to 46 µM
# Procedure, shortened: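 DMSO vehicle served as control against compound-treated ELG1-luciferase HEK293T cells; exposure lasted 16 hr at 37 °C and 5% CO2, followed by ONE-Glo luminescence detection after 30 min.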
# Potency is read from the fitted curve at half-maximal effect; tags tell the direction and shape of the fitted curve.
row,Compound,Potency
1,COC(=O)CCc1c(C)nn(-c2ccccc2)c1C,"inconclusive: 18.4 µM [activator, single point]"
2,COc1ccc2c(c1OC)C(=O)N(c1ccc(F)cc1)C2,"inconclusive: 9.2 µM [activator, partial curve]"
3,CC(C)c1nnc(NC(=O)c2ccc(S(=O)(=O)N3CCOCC3)cc2)s1,"inconclusive: 23.1 µM [activator, partial curve]"
4,O=C(Nc1nc(-c2ccccn2)cs1)c1ccc(-c2ccccc2F)o1,"inconclusive: 29.1 µM [activator, single point]"
5,COc1cccc(/C=C2\CCc3ccccc3C2=O)c1,active: 2.59 µM
6,O=C(COc1ccc(F)cc1)N1CCC(c2ccccc2)C1 (centres undefined),"inconclusive: 20.6 µM [activator, partial curve]"
7,O=C(NCc1ccccc1)C(=O)NCC1OCCN1S(=O)(=O)c1ccc([N+](=O)[O-])cc1 (centres undefined),inactive
8,CCn1c(SCC(=O)N2CCN(c3ccccc3)CC2)nc2c(c1=O)SC(C)C2 (centres undefined),inactive
9,COc1ccc(-c2csc3nc(C)nc(N4CCC(C)CC4)c23)cc1OC,"inconclusive: 29.1 µM [activator, single point]"
10,N#CC(Cc1ccc(OC(F)F)cc1)c1nc2ccccc2[nH]1 (centres undefined),"inconclusive: 18.4 µM [activator, partial curve, poor fit]"
11,CCOC(=O)N1CC=C2C(C#N)=C(N)C(C#N)(C#N)[C@H](c3ccc(OCC)c(OCC)c3)[C@H]2C1,"inconclusive: 20.6 µM [activator, partial curve]"
12,CCN1C(=O)/C(=C/c2cnn(CC)c2C)SC1=S,"inconclusive: 32.6 µM [activator, partial curve, poor fit]"
13,Cn1ccs/c1=N\C(=O)Nc1ccccc1,"inconclusive: 7.3 µM [activator, partial curve]"
14,O=C1C=C(c2ccc(C(=O)O)cc2)C[C@@H](c2ccc(F)cc2)C1,"inconclusive: 20.6 µM [activator, partial curve, poor fit]"
15,O=C(NC1CCCCC1)n1c(=O)oc2ccc(Cl)cc21,"inconclusive: 23.1 µM [activator, partial curve, poor fit]"
16,COc1cccc(CNC(=O)Cc2ccc(NC(=O)C3=C(C)OCCS3)cc2)c1,"inconclusive: 25.9 µM [activator, partial curve, poor fit]"
17,COc1cc(-c2nc3ccccn3c2/N=C/c2cccc(OC)c2O)ccc1O,inactive
18,N/C(=N\OC(=O)c1ccco1)c1ccccn1,"inconclusive: 13 µM [activator, partial curve]"
19,CCOC(=O)c1c(C)[nH]c(C(=O)COC(=O)C2CC(=O)N(Cc3ccccc3)C2)c1C (centres undefined),"inconclusive: 20.6 µM [activator, single point]"
20,O=C(N/N=C/c1cccs1)c1cccc(NC(=O)c2ccc(Cl)cc2)c1,"inconclusive: 25.9 µM [activator, partial curve, poor fit]"
21,O=C(/C=C\c1ccc(-c2ccccc2)o1)c1ccccc1,"inconclusive: 23.1 µM [activator, partial curve, poor fit]"
22,c1ccc(COc2ccc(OCCCN3CCCC3)cc2)cc1,"inconclusive: 2.31 µM [activator, partial curve]"

row,Compound,Potency
1,COc1cc(/C=N/NC(=O)c2ccc3c(c2)OCCO3)c(Br)c(Br)c1O,inactive
2,CN(C)/C=N/C1=C(C#N)C(c2cccs2)c2ccc3ccccc3c2O1 (centres undefined),"inconclusive: 13 µM [activator, partial curve, poor fit]"
3,C/C(=N\NC(=O)c1cc(-c2ccc(C)s2)nc2ccccc12)c1cccnc1,inactive
4,O=C(Nc1nc(-c2ccc3c(c2)OCO3)cs1)C1COc2ccccc2O1 (centres undefined),inactive
5,COC(=O)c1ccc(/C=C/C(=O)c2cccc(OC)c2)cc1,"inconclusive: 29.1 µM [activator, single point]"
6,Cc1ccc(/C=N\Nc2cn[nH]c(=O)c2Cl)cc1,active: 20.6 µM
7,CC1=NN(c2ccccc2)C(=O)/C1=C/c1c(O)n(-c2ccc(F)cc2)[nH]c1=O,"inconclusive: 29.1 µM [activator, partial curve, poor fit]"
8,Cc1ccc(N=Cc2nc(-c3ccco3)oc2O)cc1,"inconclusive: 18.4 µM [activator, single point]"
9,COC(=O)c1ccc(NC(=O)CNc2ccccc2)cc1,"inconclusive: 18.3 µM [activator, partial curve, poor fit]"
10,CN(C)c1ccc(/C=C2\CCCCC2=O)cc1,active: 5.8 µM
11,O=C(CCS(=O)(=O)c1ccccc1)N1CCN(c2ccccc2F)CC1,active: 8.2 µM
12,COc1ccc(C2C=C(C)Nc3nc4ccccc4n32)cc1 (centres undefined),"inconclusive: 16.4 µM [activator, single point]"
13,CCN(CC)CC(=O)Nc1ccc(C)cc1Br,"inconclusive: 29.1 µM [activator, single point]"
14,Cc1cc(C)c(NC(=O)C2=COCCO2)c(C)c1,"inconclusive: 11.6 µM [activator, partial curve]"
15,N#Cc1cn(CC(=O)NCC2CCCO2)c2ccccc12 (centres undefined),inactive
16,CSc1ccc(CN(C)C(=O)c2cc(S(=O)(=O)NCc3ccccc3)ccc2C)cc1,"inconclusive: 25.9 µM [activator, single point]"
17,COc1cc(/C=C(/C#N)c2nc3ccccc3[nH]2)ccc1OCC(=O)Nc1ccccc1C,"inconclusive: 32.6 µM [activator, partial curve, poor fit]"
18,Cc1ccc(C(=O)Nc2ccc3c(c2)CCC3)o1,active: 3.26 µM
19,CC1=NOC(=O)/C1=C/c1ccc(O)cc1,"inconclusive: 18.3 µM [activator, single point]"
20,COc1cccc(CN2CCC(n3nccc3NC(=O)CCCc3ccccc3)CC2)c1,inactive
21,CN(C)C(=S)SCCn1c(N)nc(N(C)C)nc1=O,inactive
22,Cc1ccc(NC(=O)c2cncc(Br)c2)cc1S(=O)(=O)N(C)C,"inconclusive: 23.1 µM [activator, partial curve, poor fit]"
